Results reported in PubChem BioAssay (NCATS).
Inconclusive means that the source gave no clear call. Such entries were picked first, then a sample of the others. Where the call is inconclusive, the potency comes from a doubtful curve fit. Calls of active or inactive are those of the source. The call rests on the fitted dose curve; in most records, active means well fitted activation curve with a large enough effect; inconclusive means small, poorly fitted or top-dose-only effect; inactive means no such curve, though single readings can be large or run the other way.

Biological target: Cellular tumor antigen p53 (Homo sapiens) (UniProt P04637)
Test: Primary qHTS for small molecule compounds that upregulate eGFP-tagged delta133p53alpha (in N-terminal) cells. (AID 2060322);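 further: cells pre-induced with doxycycline then dosed without doxycycline; nearly all actives have a fitted effect of over 75% in size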;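 on activation: series mostly up to about 56 µM; 0% = DMSO vehicle and 100% = reference activator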
Settings: NCI-H358 eGFP-delta133p53alpha fluorescence, 24 h; activation: active compounds read high
Summary of the method: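 NCI-H358 cells pre-induced 24 h with 10 ng/ml doxycycline for eGFP-delta133p53alpha, plated dox-free and exposed 24 h at 37C to titrated compounds. Fixed, Hoechst-stained; gated GFP peak intensity by laser scanning cytometry, normalized to DMSO (0%) and 57.5 uM 5-azacytidine (100%).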
Potency means the concentration at half of the fitted maximal effect; tags describe the fitted curve by direction and shape.

Chain of UniProt P04637 (P04637 whole entry, looked up): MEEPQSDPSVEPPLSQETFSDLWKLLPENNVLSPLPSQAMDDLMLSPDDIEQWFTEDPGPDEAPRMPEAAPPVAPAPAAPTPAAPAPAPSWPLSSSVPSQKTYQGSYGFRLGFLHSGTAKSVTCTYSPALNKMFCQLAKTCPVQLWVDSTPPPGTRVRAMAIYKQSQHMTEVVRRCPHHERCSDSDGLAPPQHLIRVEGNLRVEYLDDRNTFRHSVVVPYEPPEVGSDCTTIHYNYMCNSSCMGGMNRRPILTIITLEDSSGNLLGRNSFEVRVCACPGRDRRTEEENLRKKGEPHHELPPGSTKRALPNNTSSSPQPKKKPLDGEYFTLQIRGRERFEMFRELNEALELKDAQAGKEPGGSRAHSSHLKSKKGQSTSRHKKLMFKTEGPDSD

| SMILES | Potency | activation |
| --- | --- | --- |
| CN(CC(=O)N(Cc1ccc(C2CCCCC2)cc1)c1ccc(C(=O)O)cc1)S(=O)(=O)c1c(F)c(F)c(F)c(F)c1F | active: 6.75 µM | – |
| CCn1ccc(NS(=O)(=O)c2ccc(N)cc2)nc1=O | inconclusive: 0.692 µM [activator, full curve, poor fit] | – |
| [O-][n+]1ccccc1SSc1cccc[n+]1[O-] | active: 0.379 µM | – |
| Cc1ccc2c(Nc3ccc(Cl)cc3)nccc2c1Nc1ncccc1-c1ncnc2nc[nH]c12 | active: 9.53 µM | – |
| COc1cnc(-c2ccc(Cn3c(CC(C)(C)C(=O)O)c(SC(C)(C)C)c4cc(OC[C@@H]5Cc6ccccc6N5C(C)=O)ccc43)cc2)nc1 | inconclusive: 14.8 µM [activator, single point] | – |
| O=C(CCN1CCN2CCCC2C1)N1c2ccccc2Sc2ccc(Cl)cc21 (stereo not drawn) | – | inconclusive: -30.1% [activator] |
| CC(=O)O[C@@H]1CC(C)=C2[C@H]1[C@H](C)CC[C@H]2/C=C(\C)C(=O)O | inconclusive: 37.9 µM [activator, single point] | – |
| CON=C(C(=O)N[C@@H]1C(=O)N2C(C(=O)O)=C(Cn3ccc(=N)n3CCO)CS[C@H]12)c1csc(N)n1 | – | inactive: 23.9% |
| CC(=O)Nc1cccc(O)c1 | – | inactive: -4.18% |
| CC[C@H](c1ccc(O)cc1)[C@@H](CC)c1ccc(O)cc1 | active: 12.3 µM | – |
| CN1CC(=O)N/C1=N/C(=O)Nc1cccc(Cl)c1 | inconclusive: 2.39 µM [activator, partial curve, poor fit] | – |
| C=CCN1CCc2nc(N)sc2CC1 | inconclusive: 9.78 µM [activator, partial curve, poor fit] | – |
| C=C[C@@]12COC(=O)C(=C)C1[C@@H](O)[C@H](C(=C)C(=O)OC)[C@@H](OC(=O)C(=C)CO)C2 (stereo partly drawn) | inconclusive: 11.7 µM [activator, single point] | – |
| COc1ncc2cc(C(=O)Nc3cc(C(=O)NCc4cccc(Cl)c4)ccc3Cl)c(=O)[nH]c2n1 | active: 2.69 µM | – |
| C=C1C[C@]23C[C@H]1CC[C@H]2C1=C[C@H]2OC(=O)[C@@](C)([C@H]1[C@@H]3C(=O)O)[C@H]2O | inconclusive: 5.24 µM [activator, single point] | – |
| CC1(C(=O)O)CCCC2(C)C3CCC4CC3(CCC12)CC4(O)CO (stereo not drawn) | – | inconclusive: 20.5% [activator] |
| C=C1CC2OC(=O)C(COC)C2C(OC(=O)/C(C)=C\C)CC2(C)OC1=CC2=O (stereo not drawn) | active: 14.8 µM | – |

| SMILES | Potency | activation |
| --- | --- | --- |
| N#Cc1cnc2cnc(NCc3cccnc3)cc2c1Nc1ccc(F)c(Cl)c1 | active: 2.69 µM | – |
| N#C/C(=C1\SCC(c2ccccc2Cl)S1)n1ccnc1 (stereo not drawn) | – | inactive: 5.08% |
| COc1ccc(-c2ccc3c(N4CCOC[C@H]4C)nc(N4CCOC[C@H]4C)nc3n2)cc1CO | inconclusive: 3.85 µM [activator, full curve] | – |
| CNC(=O)[C@@H](c1ccccc1)N1CCc2cc(OC)c(OC)cc2[C@@H]1CCc1ccc(C(F)(F)F)cc1 | – | inactive: -3.34% |
| COc1cc2nc(N3CCCCC3)nc(NC3CCN(Cc4ccccc4)CC3)c2cc1OC | inconclusive: 43.2 µM [activator, single point] | – |
| O=C(NC1(c2ccccc2)CC1)c1c(CN2CCC(N3CCCCC3)CC2)c(-c2cccc(C(F)(F)F)c2)nc2cc(Br)ccc12 | inconclusive: 23.9 µM [activator, single point] | – |
| C1N2CN3CN1CN(C2)C3 | active: 27.6 µM | – |
| OC[C@H]1O[C@@H](O[C@H]2[C@H](OCCc3ccccc3)O[C@H](CO)[C@@H](O)[C@@H]2O)[C@H](O)[C@@H](O)[C@@H]1O | – | inconclusive: 45.5% [activator] |
| COc1cc(/C=C/C(=O)O[C@H]2CC[C@]34C[C@]35CC[C@]3(C)[C@@H]([C@H](C)CCC=C(C)C)CC[C@@]3(C)[C@@H]5CC[C@H]4C2(C)C)ccc1O | – | inconclusive: -27.7% [activator] |
| COc1cc(O)c2c(c1)C(=O)c1cc(C)cc(O)c1C2=O | inconclusive: 4.73 µM [activator, partial curve, poor fit] | – |
| CC(=O)C(C)=O | – | inactive: -5.18% |
| CCn1c2ccccc2c2cc(CNC)ccc21 | inconclusive: 8.49 µM [activator, single point] | – |
| CC12CCC(OC3OC(CO)C(O)C(OC4OC(CO)C(O)C(O)C4O)C3O)CC1CCC1C2CCC2(C)/C(=C3/COC(=O)C3)CCC12O (stereo not drawn) | – | inactive: -3.82% |
| N#CC(C#N)=C(N)/C(C#N)=C/c1ccc(O)cc1 | – | inactive: -15.2% |
| C=C(CCC1=C(C)[C@H]2[C@H](CC3[C@@H]4CC=C5C[C@@H](O)C[C@@H](O)[C@]5(C)C4[C@H](O)C[C@@]32C)O1)CO[C@@H]1O[C@H](CO)[C@@H](O)[C@H](O)[C@H]1O (stereo partly drawn) | inconclusive: 1.41 µM [activator, partial curve, poor fit] | – |
| C/C=C/CC(C)C(O)C1C(=O)NC(CC)C(=O)N(C)CC(=O)N(C)C(CC(C)C)C(=O)NC(C(C)C)C(=O)N(C)C(CC(C)C)C(=O)NC(C)C(=O)NC(C)C(=O)N(C)C(CC(C)C)C(=O)N(C)C(CC(C)C)C(=O)N(C)C(C(C)C)C(=O)N1C (stereo not drawn) | inconclusive: 2.39 µM [activator, partial curve, poor fit] | – |
